44 molecules from article PMC4336329 (PLoS ONE, 2015) can be followed below.

Out of some 310,000 compounds screened, about 2,200 (0.71%) showed an effect of 50% or more. Effects have a minus sign here. The list shows a part of the results.

For this test, the target named is human ether-à-go-go-related gene (hERG) potassium channel (human, UniProt Q12809). The experiment in a line: primary screen, population patch clamp on CHO cells stably expressing hERG.
Sequence of human ether-à-go-go-related gene (hERG) potassium channel (Q12809 whole entry, looked up): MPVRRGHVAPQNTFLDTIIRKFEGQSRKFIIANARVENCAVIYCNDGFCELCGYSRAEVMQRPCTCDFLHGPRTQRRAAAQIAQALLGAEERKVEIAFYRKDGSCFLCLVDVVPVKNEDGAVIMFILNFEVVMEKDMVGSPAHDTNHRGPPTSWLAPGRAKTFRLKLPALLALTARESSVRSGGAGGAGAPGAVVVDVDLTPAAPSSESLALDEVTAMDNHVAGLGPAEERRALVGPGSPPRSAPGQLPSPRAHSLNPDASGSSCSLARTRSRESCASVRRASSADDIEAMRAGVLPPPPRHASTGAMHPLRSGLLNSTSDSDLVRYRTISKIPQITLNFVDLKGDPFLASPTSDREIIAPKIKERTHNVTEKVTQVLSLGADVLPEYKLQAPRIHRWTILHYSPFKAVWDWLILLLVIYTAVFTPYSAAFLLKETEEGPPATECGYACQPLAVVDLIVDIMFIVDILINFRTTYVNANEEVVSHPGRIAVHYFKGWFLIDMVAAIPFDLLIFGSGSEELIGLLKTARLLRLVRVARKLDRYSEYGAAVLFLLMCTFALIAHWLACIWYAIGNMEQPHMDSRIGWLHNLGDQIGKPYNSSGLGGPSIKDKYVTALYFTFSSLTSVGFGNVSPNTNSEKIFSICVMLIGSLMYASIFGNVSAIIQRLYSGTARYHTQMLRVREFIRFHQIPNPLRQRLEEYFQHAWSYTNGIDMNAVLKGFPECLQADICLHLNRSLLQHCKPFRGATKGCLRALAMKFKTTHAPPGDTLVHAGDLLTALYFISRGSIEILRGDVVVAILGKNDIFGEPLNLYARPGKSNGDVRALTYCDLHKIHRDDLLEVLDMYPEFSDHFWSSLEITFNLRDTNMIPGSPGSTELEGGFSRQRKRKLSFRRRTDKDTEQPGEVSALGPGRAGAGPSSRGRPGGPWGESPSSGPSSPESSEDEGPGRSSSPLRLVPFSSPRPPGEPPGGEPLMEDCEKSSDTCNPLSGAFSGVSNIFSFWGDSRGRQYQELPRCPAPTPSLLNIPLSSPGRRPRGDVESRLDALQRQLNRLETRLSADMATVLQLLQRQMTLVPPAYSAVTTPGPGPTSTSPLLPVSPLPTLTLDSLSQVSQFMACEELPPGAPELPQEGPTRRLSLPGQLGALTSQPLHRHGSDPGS
With `CO/N=C/CC(=O)Nc1ccc(F)cc1F`, the “hERG current change (%, negative = inhibition) at 1uM” value came to 12%.

With `C=CCc1cccc2cc(C(=O)Nc3ccc(S(=O)(=O)Nc4nnc(CC)s4)cc3)c(=O)oc12`, the “hERG current change (%, negative = inhibition) at 1uM” value was 1.95%.

As for `O=Cc1c(Nc2cccc(C(F)(F)F)c2)nc2ccccn2c1=O`, the “hERG current change (%, negative = inhibition) at 1uM” value stood at 10.8%.

As to `O=C(OCC(=O)N1CCCc2ccccc21)c1cccc(S(=O)(=O)N2CCOCC2)c1`, the “hERG current change (%, negative = inhibition) at 1uM” value is on record as 10.6%.

Turning to `CC(C)c1ccc(/C=N/NC(=O)CC(=O)NC2CCCCC2)cc1`, the “hERG current change (%, negative = inhibition) at 1uM” value is given as 10.2%.

Turning to `CCCCCC1CC(=O)C=C(C)C1C(=O)OC` (centres unmarked), the “hERG current change (%, negative = inhibition) at 1uM” value is 11.4%.

Take `O=C(CN(c1ccc(Cl)cc1)S(=O)(=O)c1ccccc1)N/N=C/c1ccco1`: the “hERG current change (%, negative = inhibition) at 1uM” value is 3.97%.

For the molecule `O=C1c2ccc(Oc3ccc4c(c3)C(=O)N(CCCCO)C4=O)cc2C(=O)N1CCCCO`, the “hERG current change (%, negative = inhibition) at 1uM” value came to 9.02%.

Turning to `O=[N+]([O-])c1ccccc1S(=O)(=O)N(CC1CO1)c1ccccc1` (centres unmarked), the “hERG current change (%, negative = inhibition) at 1uM” value was found to be 15.9%.

Consider `COc1ccccc1CNC(=S)NCCc1ccccc1`, for which the “hERG current change (%, negative = inhibition) at 1uM” value is 8.63%.

On to `O=C(Nc1ccccc1)Nc1nccs1`, for which the “hERG current change (%, negative = inhibition) at 1uM” value is recorded as -4.78%.

`CCCn1c(SCC(=O)Nc2nnc(C)s2)nnc1-c1ccoc1C`: the “hERG current change (%, negative = inhibition) at 1uM” value was determined as 6.16%.

As to `CC(O)CNc1ccc(-c2nn(C)c(=O)c3ccccc23)cc1[N+](=O)[O-]` (centres unmarked), the “hERG current change (%, negative = inhibition) at 1uM” value is on record as 5.09%.

For the molecule `O=C(NC1CC2CCCC(C1)N2C(=O)Nc1ccccc1)c1ccccc1` (centres unmarked), the “hERG current change (%, negative = inhibition) at 1uM” value is reported as 9.61%.

Take `CCOC(=O)c1ccc(Nc2nc(C)nc3c2nnn3Cc2ccccc2)cc1`: the “hERG current change (%, negative = inhibition) at 1uM” value stood at 13.5%.

On to `COC(=O)N/N=C(\C)c1ccccc1OC(F)F`, for which the “hERG current change (%, negative = inhibition) at 1uM” value is listed as 4.38%.

In the case of `O=C(O)c1ccc2c(c1)C(=O)/C(=C/c1ccccc1)C2=O`, the “hERG current change (%, negative = inhibition) at 1uM” value was determined as 5.78%.

`COc1ccc(CC(NC(C)=O)C(=O)NC2CCN(C(=O)c3cc(OC)c(OC)c(OC)c3)CC2)cc1` (centres unmarked): the “hERG current change (%, negative = inhibition) at 1uM” value is 14.3%.

For the molecule `Cc1nn(C)cc1CNC(=O)c1ccc(Br)o1`, the “hERG current change (%, negative = inhibition) at 1uM” value was 4.61%.

For `Cc1cc(C(=O)Nc2sc3c(c2C#N)CCCC3)no1`, the “hERG current change (%, negative = inhibition) at 1uM” value is on record as 10.9%.

`O=C(NCc1ccccc1)C(=O)NCC1OCCN1C(=O)c1ccc(Cl)cc1` (centres unmarked): the “hERG current change (%, negative = inhibition) at 1uM” value was found to be 6.18%.

In the case of `CS(=O)(=O)c1ccccc1C(=O)NCCC(c1ccccc1)c1ccccc1`, the “hERG current change (%, negative = inhibition) at 1uM” value is given as -3.33%.

With `Cc1ccc(S(=O)(=O)N2CCOC2CNC(=O)C(=O)NCc2ccccn2)cc1` (centres unmarked), the “hERG current change (%, negative = inhibition) at 1uM” value was found to be 11.3%.

For the molecule `COc1ccc(C2C(C#N)=C(C)NC(C)=C2C(=O)OC(C)C)c(OC)c1` (centres unmarked), the “hERG current change (%, negative = inhibition) at 1uM” value worked out at 7.42%.

In the case of `CCn1nnnc1SCC(=O)Nc1ccc(F)cc1`, the “hERG current change (%, negative = inhibition) at 1uM” value was determined as 10.5%.

`CCOC(=O)C(NC(C)=O)C(=O)Nc1c(C)cccc1C` (centres unmarked): the “hERG current change (%, negative = inhibition) at 1uM” value was found to be 0.521%.

For the molecule `COc1cccc(NC(=O)C(=O)NCCC2CCCCN2S(=O)(=O)c2cccs2)c1` (centres unmarked), the “hERG current change (%, negative = inhibition) at 1uM” value was determined as 9.71%.

In the case of `CCOC(=O)c1c(-c2cccc([N+](=O)[O-])c2)csc1NC(=O)C1CCCCC1`, the “hERG current change (%, negative = inhibition) at 1uM” value was 25%.

For the molecule `O=C(Nc1ccc(-c2cnco2)cc1)c1ccc(Cl)cc1`, the “hERG current change (%, negative = inhibition) at 1uM” value was determined as 9.33%.

`Cc1ccc(NC(=O)C2CCCN(S(=O)(=O)c3ccc4[nH]c(=O)ccc4c3)C2)c(C)c1` (centres unmarked): the “hERG current change (%, negative = inhibition) at 1uM” value was 4.85%.

Regarding `CCC/C(=N\NC(=O)C1CCCC1)c1ccccc1`, the “hERG current change (%, negative = inhibition) at 1uM” value is recorded as 8.85%.

As for `CCC(C(=O)Nc1ccccc1C(=O)N1CCCC1)N1C(=O)c2ccccc2C1=O` (centres unmarked), the “hERG current change (%, negative = inhibition) at 1uM” value is reported as -5.5%.

For the molecule `COc1cccc(NC(=S)N(CCCN2CCCC2)Cc2ccco2)c1`, the “hERG current change (%, negative = inhibition) at 1uM” value is on record as -9.86%.

`Cl.OCCNc1nc(Nc2cccc(O)c2)nc2ccccc12`: the “hERG current change (%, negative = inhibition) at 1uM” value is -5.97%.

Regarding `CCc1ccccc1NC(=O)CSC1=C(C#N)C(c2ccc3c(c2)OCO3)C2=C(CCCC2=O)N1` (centres unmarked), the “hERG current change (%, negative = inhibition) at 1uM” value stood at 11.7%.

Turning to `CC(C)NC(=O)c1noc2cc([N+](=O)[O-])ccc12`, the “hERG current change (%, negative = inhibition) at 1uM” value was determined as 10.2%.

As to `O=C(CSc1nnc(-c2ccco2)n1Cc1ccco1)Nc1ccccc1`, the “hERG current change (%, negative = inhibition) at 1uM” value was -6.32%.

With `Cl.O=C1[C@H]2CCCC[C@H]2C(=O)N1CCCCN1CCN(c2nsc3ccccc23)CC1`, the “hERG current change (%, negative = inhibition) at 1uM” value is listed as -44.9%.

For the molecule `COc1ccc(-n2nnnc2SCC(=O)NCCc2ccccc2)cc1OC`, the “hERG current change (%, negative = inhibition) at 1uM” value is recorded as 10.1%.

On to `Cc1nn(-c2ccccc2)c2c1C(O)CC(C)(C)C2` (centres unmarked), for which the “hERG current change (%, negative = inhibition) at 1uM” value came out at 15%.

For the molecule `Cc1cccc(NC(=O)CCC(=O)N2CCOCC2)n1`, the “hERG current change (%, negative = inhibition) at 1uM” value amounted to 8.62%.

Regarding `O=C(COc1coc(CN2CCN(c3ccccc3F)CC2)cc1=O)NC1CCCCC1`, the “hERG current change (%, negative = inhibition) at 1uM” value stood at 2.87%.

Turning to `CC(C)CC(=O)Nc1c2c(nn1-c1ccc([N+](=O)[O-])cc1)CS(=O)(=O)C2`, the “hERG current change (%, negative = inhibition) at 1uM” value is -0.629%.

Take `O=C(N/N=C/c1ccc([N+](=O)[O-])cc1)c1cccs1`: the “hERG current change (%, negative = inhibition) at 1uM” value is on record as 12.4%.
